Test results from publication PMC4336329 (PLoS ONE, 2015).
Hit rate of the full screen: of about 310,000 compounds, about 2,200 (0.71%) showed an effect of 50% or more. The effect is printed as a negative number. The list shows a part of the results.

target: human ether-à-go-go-related gene (hERG) potassium channel (human, UniProt Q12809); assay: primary screen, population patch clamp on CHO cells stably expressing hERG
Sequence (Q12809 whole entry, looked up): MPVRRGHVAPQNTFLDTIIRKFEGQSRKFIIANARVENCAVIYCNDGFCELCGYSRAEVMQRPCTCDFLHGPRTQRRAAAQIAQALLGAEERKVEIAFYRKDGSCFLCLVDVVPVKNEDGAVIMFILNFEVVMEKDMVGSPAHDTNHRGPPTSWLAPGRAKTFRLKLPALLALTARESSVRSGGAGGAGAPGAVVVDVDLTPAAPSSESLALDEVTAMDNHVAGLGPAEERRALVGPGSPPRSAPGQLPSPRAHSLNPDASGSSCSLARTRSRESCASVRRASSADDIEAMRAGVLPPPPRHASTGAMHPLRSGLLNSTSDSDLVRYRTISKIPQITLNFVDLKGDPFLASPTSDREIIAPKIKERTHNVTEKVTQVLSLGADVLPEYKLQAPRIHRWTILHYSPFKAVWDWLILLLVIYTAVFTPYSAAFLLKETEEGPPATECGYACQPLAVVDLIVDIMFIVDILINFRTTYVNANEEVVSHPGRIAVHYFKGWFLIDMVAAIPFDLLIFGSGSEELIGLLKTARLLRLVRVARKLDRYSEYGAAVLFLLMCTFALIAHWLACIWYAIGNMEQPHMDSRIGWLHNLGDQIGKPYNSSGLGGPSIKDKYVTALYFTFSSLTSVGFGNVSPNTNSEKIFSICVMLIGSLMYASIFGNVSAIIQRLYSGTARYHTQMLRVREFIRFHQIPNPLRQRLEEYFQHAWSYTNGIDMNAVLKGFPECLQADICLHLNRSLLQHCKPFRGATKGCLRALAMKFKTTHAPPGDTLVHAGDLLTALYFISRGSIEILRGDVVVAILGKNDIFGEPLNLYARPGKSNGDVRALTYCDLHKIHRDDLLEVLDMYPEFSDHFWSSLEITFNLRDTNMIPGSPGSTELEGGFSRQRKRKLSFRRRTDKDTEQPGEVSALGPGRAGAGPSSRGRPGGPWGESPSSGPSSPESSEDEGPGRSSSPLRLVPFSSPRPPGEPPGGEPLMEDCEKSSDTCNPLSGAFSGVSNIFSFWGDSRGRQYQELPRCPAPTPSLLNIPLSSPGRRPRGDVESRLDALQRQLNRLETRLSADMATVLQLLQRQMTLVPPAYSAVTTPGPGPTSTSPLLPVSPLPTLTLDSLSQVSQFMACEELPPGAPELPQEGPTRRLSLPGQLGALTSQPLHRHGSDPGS

| Structure (SMILES) | hERG current change (%, negative = inhibition) at 1uM [%] |
| --- | --- |
| O=C(NC(=S)Nc1ccc(NC(=O)c2cccs2)cc1)c1ccco1 | 6.68 |
| Cc1cccc(NC(=O)CSc2n[nH]c(-c3ccncc3)n2)c1C | 11.9 |
| O=C(NCc1ccco1)/C(=C\c1ccc(F)cc1)NC(=O)c1ccco1 | 5.6 |
| O=C(OCc1ccccc1)c1ccc2c(c1)-c1ccccc1C2=O | 4.6 |
| CC(C)CCOc1ccc(-c2c(=O)n(OCc3ccc([N+](=O)[O-])cc3)c3ccccc3[n+]2[O-])cc1 | 21.9 |
| COc1cccc(C(=O)c2c(C)c(CCC#N)n3ccccc23)c1OC | 9.21 |
| COC(=O)C(NC(=O)c1ccccc1C(=O)O)c1ccc2ccccc2c1 (stereo not drawn) | 15.4 |
| COC(=O)CCC(=O)NNC(=O)Cc1ccccc1 | 20.6 |
| Cc1cc(C)n(C(=O)CNC(=O)c2ccccc2F)n1 | 14.4 |
| Cc1ccc(CNC(=O)[C@H](Cc2ccccc2)NC(=O)c2ccco2)cc1 | 11.3 |
| CCCCc1cc(=O)oc2c(CN3CCN(C)CC3)c(O)ccc12 | 8.26 |
| O=C(NCC(c1ccco1)N1CCOCC1)c1ccc([N+](=O)[O-])cc1 (stereo not drawn) | 5 |
| Cn1cccc1C(C#N)(CC#N)c1cccc(F)c1C#N (stereo not drawn) | 5.15 |
| Cc1cc(S(=O)(=O)Nc2ccc(C(=O)NCC(c3ccco3)N3CCCC3)cc2)ccc1F (stereo not drawn) | 4.01 |
| CC(=O)Nc1ccc(NC(=O)C(=O)NCC(c2ccco2)N2CCc3ccccc3C2)cc1 (stereo not drawn) | 2.18 |
| CCOc1ccc(OCc2cccc(C(=O)Nc3ccc(CN4CCCCC4)cc3)c2)cc1 | 5.88 |
| O=C(NCc1ccccc1Cl)C1CCN(S(=O)(=O)N2CCC3(CC2)OCCO3)CC1 | 7.72 |
| Cn1c(=O)c2c(nc(N3CCCCCC3)n2CCSc2nc3ccccc3o2)n(C)c1=O | 1.28 |
| CCN(C(=O)CN1C(=O)S/C(=C\c2cccc(Cl)c2)C1=O)C1CCS(=O)(=O)C1 (stereo not drawn) | 7.72 |
| CN1CCN(c2ccc(NC(=O)c3ccc(Cl)cc3Cl)cc2)CC1 | 7.76 |
| CCOC(=O)CCNCc1ccc(OC)c(OC)c1.Cl | 13.6 |
| O=C(/C=C/c1cn(-c2ccccc2)nc1-c1cccnc1)N1CCCCC1 | -11.3 |
| CCC(=O)c1ccc(OCC(=O)OCC(=O)NCc2cccs2)cc1 | -5.99 |

| Structure (SMILES) | hERG current change (%, negative = inhibition) at 1uM [%] |
| --- | --- |
| Oc1cccc(Nc2nc(-c3ccccc3)nc3ccccc23)c1 | 9.15 |
| O=C(COC(=O)COc1ccc(Cl)cc1)Nc1ccc(F)c([N+](=O)[O-])c1 | 9.02 |
| N#Cc1cc(-c2ccccc2)nc(Oc2ccccc2)n1 | 3.48 |
| O=C(c1ccc(Cl)cc1)N(Cc1ccc(Br)cc1)N1C(=O)CCC1=O | -1.71 |
| CCOCCCNC(=O)/C(C#N)=C/c1ccc(-c2ccc(S(=O)(=O)N3CCOCC3)cc2)o1 | -1.44 |
| CCc1ccccc1NNC(=O)c1cc(C)on1 | 14.7 |
| O=C(Cc1ccccc1Cl)N1CCOCC1 | 8.51 |
| OCc1nnc2c3ccccc3c(-c3ccccc3)nn12 | 10 |
| CCOc1ccccc1N1CCN(C(=O)Nc2ccc(Cl)c(Cl)c2)CC1 | 9.47 |
| CCOC(=O)CSc1nnc(CNC(=O)c2ccc(S(=O)(=O)N3CCOCC3)cc2)n1C | 17.2 |
| Cn1cc(Br)c(C(=O)Nc2sc3c(c2C(N)=O)CCC3)n1 | 13.8 |
| COc1ccc(C(=O)Nc2ccc(Br)cn2)cc1S(=O)(=O)N1CCOCC1 | -19.5 |
| O=P1(O)C=C(c2ccccc2)OC(c2ccccc2)=C1 | 14.1 |
| Cn1cncc1C#Cc1c(C=O)[nH]c2ccccc12 | 11 |
| Cc1c(C(=O)N(C)C)sc(NC(=O)c2cc([N+](=O)[O-])cc([N+](=O)[O-])c2)c1C#N | 5.42 |
| Cc1nn(CCS(=O)(=O)c2ccc(Cl)cc2)c(C)c1Br | 17.8 |
| CCn1c(C)c(C(=O)O)c2cc(OC)ccc21 | 4.28 |
| O=C(Nc1cccnc1N1CCOCC1)c1cccs1 | 3.87 |
| CN=C(C)c1c(O)c2ccccc2oc1=O | 2.52 |
| CCCn1c(NC(=O)c2ccc(F)cc2)nc2ccccc21 | 11.4 |
| COc1ccc(NC(=S)N(CCCN2CCC(C)CC2)Cc2cccs2)cc1Cl | -9.68 |
| CCn1c(SCC(=O)O)nnc1-c1ccccc1OC | 11.7 |
